Reference: patent US20100210602A1, “PhoU (PerF), A P[…] INVOLVED IN [sequence] FORMATION AND TOLERANCE TO MULTIPLE ANTIBIOTICS AND [sequence] AS A DRUG TARGET FOR [sequence] BACTERIA” (priority 2006, published 2010)

System: W3110ΔphoU
Type: cell-based
Conditions: ampicillin 100 ug/ml

SMILES: CC1(C)S[C@@H]2[C@H](NC(=O)[C@H](N)c3ccccc3)C(=O)N2[C@H]1C(=O)O [Ampicillin, ampicillin]
- CFU after ampicillin exposure (Fe3+ 250 uM): 1 × 10^8 CFU
- CFU after ampicillin exposure (Pi 2 mM): 1 × 10^5 CFU

Like-named read-outs stand apart in the source and are kept apart here.
